# From the supplement of paper PMC9174493
# Some of the results follow. Single values of this set are uncertain. Values with irradiation are relative to irradiated vehicle.
# Test system: A549-Dual
# Test: NF-kB reporter (SEAP) activity, viability-corrected, relative to vehicle (fold change vs vehicle); higher = more activation of STING-IRF / NF-kB immune response reporter
# Settings: 10 µM; irradiation: 8 Gy/4 fr
# 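Further: viability correction based on the alamar blue assay, with concentrations leaving 10% survival or less dropped.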
row,Structure (SMILES),NF-kB reporter
1,C=C(C)C1CCC2(CO)CCC3(C)C(CCC4C5(C)CCC(O)C(C)(C)C5CCC43C)C12 (centres undefined) [Betulin],2.34
2,C1CCN2CC3CC(CN4CCCCC34)C2C1 (centres undefined) [Sparteine],0.878
3,CC(=O)OCC(=O)C1CCC2C3CCC4=CC(=O)CCC4(C)C3CCC12C (centres undefined) [Deoxycorticosterone acetate],0.526
4,COc1ccc(/C=C/C(=O)Nc2ccccc2C(=O)O)cc1OC [Tranilast],0.872
5,CN(C)C(CCOc1cccc2ccccc12)c1ccccc1.Cl (centres undefined) [Dapoxetine HCl],0.781
6,O=c1cc(O)c(Cl)c[nH]1 [Gimeracil],0.613
7,CC1=C(/C=C/C(C)=C/C=C/C(C)=C/CO)C(C)(C)CCC1 [Vitamin A],0.727
8,CC1=C(C(=O)O)N2C(=O)C(NC(=O)C(N)c3ccccc3)C2SC1 (centres undefined) [Cephalexin],1.08
9,CCOc1ccc2nc(S(N)(=O)=O)sc2c1 [Ethoxzolamide],1.63
